Results reported in paper PMC10883291 (Cancer Research Communications, 2024).

B1: BMS-986351-AF647 (antibody, V domains shown)
VH: QVQLVQSGAEVKKPGASVKVSCKASGYTFRGYGISWVRQAPGQGLEWMGWISAYGGETNYAQKLQGRVTMTTDTSTSTAYMELRSLRSDDTAVYYCAREAGSSWYDFDLWGRGTLVTVSS
VL: DIQMTQSPSSVSASVGDRVTITCRASQGISSWLAWYQQKPGKAPKLLIYAASNLQSGVPSRFSGSGSGTDFTLTISSLQPEDFATYYCQQGASFPITFGGGTKVEIK
notes: as the Fab part of the heavy chain of m1; human IgG1 Fc with lysine to alanine at position 322, as in m1; as the light chain of m1; m1 labelled with AF647 (Thermo Fisher Scientific) for direct staining of cells
B2: BMS-986351 (antibody, V domains shown)
VH: QVQLVQSGAEVKKPGASVKVSCKASGYTFRGYGISWVRQAPGQGLEWMGWISAYGGETNYAQKLQGRVTMTTDTSTSTAYMELRSLRSDDTAVYYCAREAGSSWYDFDLWGRGTLVTVSS
VL: DIQMTQSPSSVSASVGDRVTITCRASQGISSWLAWYQQKPGKAPKLLIYAASNLQSGVPSRFSGSGSGTDFTLTISSLQPEDFATYYCQQGASFPITFGGGTKVEIK
notes: Fab part of the heavy chain (variable domain and CH1); human IgG1 Fc with lysine to alanine at position 322; light chain; also called anti-SIRPα IgG1 mAb; lead mAb

Key:
[1] = molecular target: T1, cynomolgus SIRPα on CHO-K1 cells (Macaca fascicularis, UniProt A0A2K5VYQ9); test: flow cytometry on cells; direct staining: human and cynomolgus SIRPα-overexpressing CHO-K1 cells incubated with directly conjugated BMS-986351-AF647; gMFI against antibody concentration; settings: one partner purified
T1 construct: SIRPα, cynomolgus monkey, overexpressed on CHO-K1 cells; also called macaque SIRPα; cynomolgus monkey SIRPα; source: CHO-K1, overexpressed, on cells

[2] = molecular target: T2, mouse SIRPα on CHO-K1 cells (Mus musculus, strain , UniProt P97797); test: flow cytometry on cells; indirect staining: rat and mouse SIRPα-overexpressing CHO-K1 cells, BMS-986351 detected with anti-human AF647 secondary antibodies; gMFI against antibody concentration; settings: one partner purified
T2 construct: SIRPα, mouse, overexpressed on CHO-K1 cells; also called rodent SIRPα (mouse); source: CHO-K1, overexpressed, on cells

[3] = molecular target: T3, rat SIRPα on CHO-K1 cells (Rattus norvegicus, UniProt P97710); test: as above; settings: one partner purified
T3 construct: SIRPα, rat, overexpressed on CHO-K1 cells; also called rodent SIRPα (rat); source: CHO-K1, overexpressed, on cells

[4] = molecular target: T4, recombinant SIRPβ extracellular domain (Homo sapiens, UniProt O00241); test: SPR; Biacore T200; purified BMS-986351 captured on a ProA sensor chip; recombinant SIRPα, SIRPβ or SIRPγ injected in 5-fold dilutions (0.08–50 nmol/L), signal over 900 seconds; regeneration with 10 mmol/L glycine pH 1.5; 1:1 Langmuir model; settings: both partners purified
T4 construct: SIRPβ, recombinant extracellular domain

[5] = molecular target: T5, recombinant SIRPγ extracellular domain (Homo sapiens, UniProt Q9P1W8); test: as above; settings: both partners purified
T5 construct: SIRPγ, recombinant extracellular domain

Row | Binder | binding result [1] | binding result [2] | binding result [3] | Kd [4] | Kd [5]
1 | B1 | binds |  |  |  | 
2 | B2 |  | no binding | no binding | 0.205 nM | 0.0502 nM
